PubChem BioAssay AID2675 (National Center for Advancing Translational Sciences (NCATS), 2010)
The whole screen tested about 280,000 compounds, of which about 100 (0.036%) were called active. The inconclusive results got no clear call from the source; some entries with a clear call stand among them for comparison. The call rests on the fitted dose curve; in most records, active means well fitted inhibition curve with a large enough effect in the signal ratio, with a control signal flat (not every such curve was filed as active); inconclusive means small, poorly fitted or top-dose-only effect, or effect the other way, or a change in a side signal; inactive means no such curve, though single readings can be large or run the other way; the % refers to the signal ratio. Potencies beside an inconclusive call are fits to weak or partial responses and may not hold up. “Side channel” marks fits to a control or component signal instead of the main read-out.

molecular target: Muscleblind-like protein 1 (Homo sapiens) (UniProt Q9NR56); assay: qHTS Assay for Inhibitors of MBNL1-poly(CUG) RNA binding; settings: TR-FRET MBNL1-His/biotin-(CUG)12 binding, 665/545 ratio; activity change, negative = inhibition: at 57.5 µM (top of the series)
Procedure, shortened: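 Inhibition of protein-RNA binding appears as loss of TR-FRET between terbium anti-His antibody on MBNL1-His and streptavidin-XL665 on biotin-(CUG)12. Activity is normalized to buffer-only and uninhibited-complex controls.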
On the % scale 0 is the no-effect control and ±100 the full control effect; potency means the concentration at half of the fitted maximal effect; tags describe the fitted curve by direction and shape or compound fluorescence and quenching.

Sequence of UniProt Q9NR56 (Q9NR56 whole entry, looked up): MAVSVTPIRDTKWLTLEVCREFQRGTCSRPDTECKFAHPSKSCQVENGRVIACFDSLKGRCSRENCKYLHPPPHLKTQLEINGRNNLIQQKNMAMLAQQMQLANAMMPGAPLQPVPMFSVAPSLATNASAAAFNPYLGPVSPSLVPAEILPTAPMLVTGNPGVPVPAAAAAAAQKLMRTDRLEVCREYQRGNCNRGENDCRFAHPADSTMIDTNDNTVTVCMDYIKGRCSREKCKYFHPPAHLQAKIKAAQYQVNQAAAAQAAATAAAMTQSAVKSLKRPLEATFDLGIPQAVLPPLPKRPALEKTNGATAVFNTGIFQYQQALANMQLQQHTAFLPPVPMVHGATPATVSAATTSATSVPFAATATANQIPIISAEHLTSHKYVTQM

Structure (SMILES)	Potency	activity change, negative = inhibition
COc1cc2cc(C(c3nnnn3C3CCCC3)N3CCCCCC3)c(=O)[nH]c2cc1OC (configuration not stated)	inconclusive: 50.1 µM [quencher, side channel, partial curve, poor fit]	–
O=C1C2C(C(=O)N1/N=C/c1ccco1)C1C=CC2C12CC2 (configuration not stated)	inconclusive: 15.8 µM [quencher, side channel, single point]	–
COc1ccc(CNCc2ccccc2[N+](=O)[O-])cc1OC	inconclusive: 28.2 µM [quencher, side channel, partial curve]	–
N#C/C(=C\c1coc2ccccc2c1=O)C(N)=S	inconclusive: 14.1 µM [quencher, side channel, single point]	–
CCOc1cc(/C=C2\NC(=O)NC2=O)ccc1OC(C)C(=O)O (configuration not stated)	inconclusive: 20 µM [quencher, side channel, partial curve]	–
COc1ccccc1C(=O)N/C(=C\c1cn(C)c2ccccc12)C(=O)NCCCn1ccnc1	–	inconclusive: 19.2% [phenotype inactive]
CN(C)c1ccc(C=Nc2ccc(N(C)C)cc2)cc1	inconclusive: 22.4 µM [quencher, side channel, single point]	–
[O-][N+]1=c2ccc(Nc3ccccc3)cc2=NC12CCCCC2	inconclusive: 11.2 µM [quencher, side channel, partial curve]	–
Cc1cc(NC(=O)Nc2ccccc2[N+](=O)[O-])no1	inconclusive: 10 µM [quencher, side channel, partial curve]	–
COc1ccc2cc(/C=C/C(=O)N3CCN(CC(=O)N4CCCCCC4)CC3)ccc2c1	inconclusive: 14.1 µM [quencher, side channel, partial curve]	–
CCOc1ccc(NS(=O)(=O)c2ccc(NC(=S)NC(=O)CC(C)C)cc2)cc1	–	inactive: -1.81%
COCCNC(=O)C(c1ccco1)N(C(=O)Cn1nnc2ccccc21)c1cc(C)ccc1C (configuration not stated)	–	inactive: 11.2%
O=C(Oc1c(Cl)cc(Cl)c2cccnc12)c1ccco1	–	inactive: 1.66%
Cc1ccc(C2CC2C(=O)NNC(=S)Nc2cccc(C)c2)cc1 (configuration not stated)	–	inactive: -8.27%
CCOC(=O)CNc1c(-c2ccc(OC)cc2)nc2ccc(Cl)cn12	inconclusive: 0.631 µM [quencher, side channel, full curve, poor fit]	–
O=C1N=C(N2CCOCC2)S/C1=C\c1cccs1	inconclusive: 12.6 µM [quencher, side channel, partial curve]	–
COc1ccc([N+](=O)[O-])cc1C(=O)NCCOc1ccc(Cl)cc1	inconclusive: 28.2 µM [quencher, side channel, partial curve]	–
CC(C)Cn1c(/C=C/c2ccco2)nc2ccccc21	–	inactive: 6.91%
O=C(Oc1ccccc1C(=S)N1CCOCC1)c1ccc([N+](=O)[O-])cc1[N+](=O)[O-]	inconclusive: 15.8 µM [quencher, side channel, partial curve]	–

Structure (SMILES)	Potency	activity change, negative = inhibition
O=[N+]([O-])c1cccnc1N1CCN(c2ccccc2F)CC1	inconclusive: 14.1 µM [quencher, side channel, partial curve]	–
CN(C)c1ccc(/C=N/NC(=O)c2ccco2)cc1	inconclusive: 31.6 µM [quencher, side channel, partial curve]	–
Cc1c(N2C(=O)c3ccc4c5c(ccc(c35)C2=O)CC4)c(=O)n(-c2ccccc2)n1C	inconclusive: 14.1 µM [quencher, partial curve]	–
O=C(Nc1nc2ccc(S(=O)(=O)N3CCCC3)cc2s1)c1ccco1	inconclusive: 20 µM [fluorescent, side channel, partial curve]	–
Cc1ccc(CNC(=O)CSc2nc3ccccc3[nH]2)cc1	–	inactive: -4.63%
CCOC(=O)C1CCCN(C(=O)/C=C/c2ccc([N+](=O)[O-])cc2)C1 (configuration not stated)	inconclusive: 31.6 µM [quencher, side channel, single point]	–
CN1CCN(c2ccccc2NC(=O)c2ccc(N3CCCC3)c([N+](=O)[O-])c2)CC1	inconclusive: 22.4 µM [quencher, side channel, partial curve]	–
CSCCC(NC(=O)c1ccc([N+](=O)[O-])cc1Cl)C(=O)OC1CCCCC1=O (configuration not stated)	inconclusive: 1.78 µM [quencher, side channel, full curve]	–
Cc1ccnc(NC(=O)Cc2ccc([N+](=O)[O-])cc2)c1	inconclusive: 22.4 µM [quencher, side channel, partial curve]	–
CCOC(=O)C(C)N1C(=O)S/C(=C/c2cc(C)n(-c3ccccn3)c2C)C1=O (configuration not stated)	inconclusive: 28.2 µM [quencher, side channel, single point]	–
COc1ccc(C(=O)c2ccc(OC)c(N)c2)cc1N	inconclusive: 14.1 µM [quencher, side channel, partial curve]	–
CCN(C(=O)COC(=O)c1cc([N+](=O)[O-])ccc1N1CCCCC1)C1CCS(=O)(=O)C1 (configuration not stated)	inconclusive: 14.1 µM [quencher, side channel, partial curve]	–
O=c1[nH]c2ccccc2nc1/C=C/c1ccc(F)cc1	inconclusive: 7.08 µM [quencher, side channel, full curve]	–
COc1ccc(Br)cc1/C(C)=N/NC1=NCCN1	inconclusive: 28.2 µM [quencher, side channel, partial curve]	–
COC(=O)CCCC1=CC2=C(c3ccccc3)C(=O)C(C)(OC(=O)C3CCCC3)C(=O)C2=CN1CCc1ccccn1 (configuration not stated)	inconclusive: 15.8 µM [quencher, side channel, single point]	–
N#CC(C#N)=C1C(=O)N(CCN2CCOCC2)c2ccccc21	inconclusive: 20 µM [quencher, side channel, partial curve]	–
CN(C)c1ccc(/C=C2\SC(N3CCCCC3)=NC2=O)cc1	inconclusive: 7.08 µM [quencher, side channel, full curve, poor fit]	–
Cc1ccc(Oc2ncccc2C(=O)NCC(=O)O)cc1	–	inactive: -11.1%
O=C(NCCCN1CCCCC1)C1CCC(CNS(=O)(=O)c2cccc3nsnc23)CC1 (configuration not stated)	inconclusive: 12.6 µM [quencher, side channel, partial curve]	–

Structure (SMILES)	Potency	activity change, negative = inhibition
COc1ccc(C(=O)Nc2cc([N+](=O)[O-])ccc2N2CCN(C)CC2)cc1	inconclusive: 28.2 µM [quencher, side channel, partial curve]	–
C/C(Cn1cnc([N+](=O)[O-])n1)=N\NC(=O)c1ccc(F)cc1	inconclusive: 4.47 µM [quencher, side channel, full curve]	–
N#C/C(=C\c1cn(CC(=O)O)c2ccccc12)C(=O)NCc1ccccc1	inconclusive: 12.6 µM [quencher, side channel, partial curve]	–
O=Nc1c(O)n(Cc2c(Cl)cccc2Cl)c2ccccc12	inconclusive: 8.91 µM [quencher, side channel, single point]	–
CN(C)/C=C/C(=O)c1cnc2n(c1=O)CCS2	inconclusive: 31.6 µM [quencher, side channel, single point]	–
COc1cccc(CNC(=O)N2CCN(S(=O)(=O)c3ccc(C)cc3)CC2)c1	–	inactive: -2.58%
COc1cc(/C=C2\SC(=S)N(NC(=O)c3ccccc3OC)C2=O)ccc1O	inconclusive: 15.8 µM [quencher, side channel, partial curve]	–
CCCN1CCOC(CC(=O)Nc2ccc([N+](=O)[O-])cc2)C1=O (configuration not stated)	inconclusive: 14.1 µM [quencher, side channel, partial curve]	–
Cc1cccc(NCc2ccccc2OCc2ccccc2F)c1	inconclusive: 0.316 µM [fluorescent, side channel, full curve]	–
Cc1ccc(C(=O)OCC(=O)N(CC(C)C)c2c(N)n(Cc3ccccc3)c(=O)[nH]c2=O)s1	–	inactive: -2.48%
Cc1cc(C)n2[nH]c(=O)c(N=Nc3cccc(C(F)(F)F)c3)c2n1	inconclusive: 25.1 µM [quencher, side channel, partial curve]	–
Cc1ccc(C(=O)OCc2cc3ccccc3[nH]c2=O)cc1	inconclusive: 22.4 µM [fluorescent, side channel, single point]	–
CCOc1ccc(C2C(C#N)=C(N)SC(N)=C2C#N)cc1OC	inconclusive: 8.91 µM [quencher, side channel, partial curve]	–
O=C1CCCC2=C1Sc1ccc(Cl)cc1N2	inconclusive: 3.98 µM [quencher, side channel, partial curve]	–
Cc1nc(C)c(/C(O)=C/c2nc3ccc([N+](=O)[O-])cc3oc2=O)o1	inconclusive: 15.8 µM [quencher, side channel, partial curve]	–
COC(=O)Cc1cc(=O)n(-c2nc3ccccc3s2)[nH]1	inconclusive: 22.4 µM [quencher, side channel, partial curve]	–
Cc1cccc2cc(CN(Cc3ccco3)C(c3nnnn3CCc3ccccc3)C(C)C)c(=O)[nH]c12 (configuration not stated)	inconclusive: 17.8 µM [quencher, side channel, partial curve]	–
COc1cccc(NC(=O)c2ccc3snnc3c2)c1	inconclusive: 44.7 µM [quencher, side channel, single point]	–
CN1C(=O)c2cccc(NC(=O)Cc3ccccc3)c2C1=O	inconclusive: 17.8 µM [quencher, side channel, single point]	–
